Hit rate of the full screen: of about 420,000 compounds, about 64,000 (15%) were called active. This list was built around the results that the source calls inconclusive (neither active nor inactive); the mix of calls is not that of the screen. The call rests on the fitted dose curve; in most records, active means well fitted inhibition curve with a large enough effect; inconclusive means small, poorly fitted or top-dose-only effect; inactive means flat fitted curve, though single readings scatter. No potency is given beside an inconclusive call; the fits are too rough.
Experiment: qHTS for Inhibitors of human tyrosyl-DNA phosphodiesterase 1 (TDP1): qHTS in cells in absence of CPT; further: nearly all actives have a fitted effect of over 55% in size
Conditions: DT40 Tdp1-/- hTDP1 cells, no CPT, ATP luminescence, 48 h; activity change, negative = growth inhibition: at 46.2 µM (top of the series) unless noted
Method in brief: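 Growth of hTDP1-complemented DT40 Tdp1-knockout cells is measured by ATP luminescence after at least 48 hr compound exposure at 37 °C, with DMSO substituting for the 20 nM CPT used in the parallel screen.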
On the % scale 0 is the no-effect control and ±100 the full control effect; potency means the concentration at half of the fitted maximal effect; tags describe the fitted curve by direction and shape.

| SMILES | Potency | activity change, negative = growth inhibition |
| --- | --- | --- |
| Cc1ccc(-c2cnc(NC(=O)CCC(=O)N3CCCCC3)n2C)cc1 | inconclusive [inhibitor, single point] | – |
| CCOc1ccc(C(=O)NCCc2csc(-c3ccc(C(F)(F)F)cc3)n2)cc1OCC | active: 14.6 µM | – |
| O=C1CC2(CCCC2)Oc2ccc(F)cc21 | – | inactive: -12% |
| Cn1c(C(=O)N2CCN(c3ccccn3)CC2)cc2ccccc21 | inconclusive [inhibitor, single point] | – |
| O=C(CN1C(=O)NC(c2ccccc2)(c2ccccc2)C1=O)NCc1ccccc1 | – | inactive: 13% |
| Cc1cc(NS(C)(=O)=O)c(=O)n(Cc2cccc(C(F)(F)F)c2)c1 | – | inactive: -19.1% |
| COc1ccc(NC(=O)c2ccccc2C)cc1 | inconclusive [inhibitor, single point] | – |
| COc1cccc(C(C(=O)NCc2ccco2)N(C(=O)Cn2nnc3ccccc32)C2CC2)c1OC (stereo unspecified) | active: 13 µM | – |
| CN1OC[C@@H]2CN[C@H](c3cccc(N4CCOCC4)c3)C[C@@H]21 | – | inactive: 4.75% |
| COCCCNC(=O)C[C@H]1C[C@H](C(=O)N2CCOCC2)[C@@]2(C)c3[nH]c4cc(-c5ccco5)ccc4c3CCN2C1=O | inconclusive [inhibitor, single point] | – |
| COc1ccc(CCn2c(=N)c(C(=O)NC3CCCC3)cc3c(=O)n4ccccc4nc32)cc1OC | active: 0.651 µM | – |
| COc1ccc2c(c1)c(C(=O)OCCN(C)C)c(C)n2C | inconclusive [inhibitor, single point] | – |
| COCCNc1nc(Oc2ccccc2)c2sccc2n1 | active: 23.1 µM | – |
| COc1ccc(S(=O)(=O)c2c(Nc3ccc(F)cc3)sc(C(=O)c3ccc(C)cc3C)c2N)cc1 | inconclusive [inhibitor, single point] | – |
| Cc1nn(-c2ccccc2)c(C)c1NC(=O)COC(=O)/C=C/c1ccccc1 | – | inactive: -3.23% |
| O=[N+]([O-])c1ccc(NCc2ccncc2)cc1 | – | inactive: -17.9% |
| CCOC(=O)CC1(C)Sc2ccccc2N1S(=O)(=O)c1ccc(C)cc1 (stereo unspecified) | inconclusive [inhibitor, single point] | – |
| c1ccc(Cc2nnc(SCc3nc(-c4cccs4)no3)n2-c2ccccc2)cc1 | inconclusive [inhibitor, single point] | – |

| SMILES | Potency | activity change, negative = growth inhibition |
| --- | --- | --- |
| Cc1cccc(C)c1OCC(=O)NNC(=O)c1ccoc1C | – | inactive: -1.2% |
| CC(NC(=O)C(C)N1CCN(Cc2ccccc2)CC1)c1ccc(F)cc1 (stereo unspecified) | – | inactive: -14.6% |
| COc1ccc2oc(C(=O)NC(C)(C)C)c(C)c2c1 | – | inactive: -17.8% |
| COc1ccccc1CNC(=O)C1CCN(S(=O)(=O)c2ccc(N3CCCC3=O)cc2)CC1 | – | inconclusive: -26.8% [inhibitor] |
| NS(=O)(=O)c1ccc(NC(=S)NC(=O)c2ccc(Br)o2)cc1 | inconclusive [inhibitor, single point] | – |
| CC1(C)C2CCC1(C)C(SC(=N)N)C2 (stereo unspecified) | inconclusive [inhibitor, single point] | – |
| O=c1c(-c2ccc(Br)cc2)[n+]([O-])c2ccccc2n1OCc1ccccn1 | inconclusive [inhibitor, single point] | – |
| CC1CC(C)CN(CCCNC(=O)c2ccc(CS(=O)(=O)Cc3ccccc3F)o2)C1 (stereo unspecified) | inconclusive [inhibitor, single point] | – |
| CCOc1ccc2ccccc2c1/C=N/NC(=O)CNC(=O)C(c1ccccc1)c1ccccc1 | inconclusive [inhibitor, partial curve] | – |
| CCC1=C(Nc2ccccc2)COC1=O | inconclusive [inhibitor, partial curve, poor fit] | – |
| CC1CCCN(S(=O)(=O)c2cc(C(=O)NCCc3ccc(S(N)(=O)=O)cc3)ccc2Cl)C1 (stereo unspecified) | inconclusive [inhibitor, single point] | – |
| Cc1sc2ncnc(SCc3ccco3)c2c1C | inconclusive [inhibitor, single point] | – |
| CCOC(=O)CSc1nc(-c2ccccn2)ncc1OC | active: 4.61 µM | – |
| O=C(Nc1ccc(O)cc1)c1ccccc1O | inconclusive [inhibitor, single point] | – |
| CS(=O)(=O)c1ccc(NC(=O)C2CCCN(C(=O)c3ccc(Cl)cc3)C2)cc1 (stereo unspecified) | inconclusive [inhibitor, single point] | – |
| O=c1c2oc3ccccc3c2n(Cc2cccc(F)c2)c(=O)n1Cc1ccco1 | inconclusive [inhibitor, single point] | – |
| O=C(c1nnsc1S(=O)(=O)c1ccc(Cl)cc1)N1CCOCC1 | active: 2.91 µM | – |
| Cc1c(Cl)c(C(F)(F)F)nn1CC(=O)NCc1ccccc1 | inconclusive [inhibitor, partial curve, poor fit] | – |

Reference: PubChem BioAssay AID686978 (National Center for Advancing Translational Sciences (NCATS), 2013)
